Measured values taken from the antibiotic and cytotoxicity screens of Wong et al. (2023).
The list shows a part of the results.

What follows are compounds tested on HSkMC (human skeletal muscle cells) (assay: cytotoxicity call (relative viability < 0.9)). Settings: 10 µM.

Structure (SMILES) | cytotoxicity call
C=CCOC(=O)[C@H]1[C@@H]2C(=O)O[C@@H](c3ccccc3)[C@@H](c3ccccc3)N2[C@@H](c2ccc(OCCOC(=O)[C@@H]3C[C@@H]4C(=O)N[C@@H](CCCCNC(C)=O)C(=O)N4[C@@H]3c3ccc(O)cc3)cc2)[C@]12C(=O)Nc1ccccc12 | inactive
COc1ccc([C@H]([C@H](Cc2ccccc2)OC(C)=O)N(C[C@@H](/C=C/c2ccccc2)CC(=O)N(C)C)[C@@H](Cc2ccccc2)C(OC)OC)cc1 | inactive
C[C@H]1CN([C@@H](C)CO)C(=O)c2cc(NC(=O)Nc3ccc4c(c3)OCO4)ccc2O[C@H]1CN(C)Cc1ccc(Cl)c(Cl)c1 | inactive
NC(=O)CCCCC1CCSS1 (stereo not given) | inactive
O=C(CN1CCOCC1)NCC[C@H]1CC[C@H](NC(=O)c2ccc3c(c2)OCO3)[C@@H](CO)O1 | inactive
C[C@@H]1CN([C@@H](C)CO)C(=O)c2cc(NC(=O)C3CCCCC3)ccc2O[C@@H](C)CCCCO[C@H]1CN(C)Cc1ccc(Cl)c(Cl)c1 | inactive
C[C@@H]1CCCCO[C@@H](CN(C)C(=O)Nc2cccc3ccccc23)[C@H](C)CN([C@@H](C)CO)C(=O)c2cc(NS(=O)(=O)c3ccc(F)cc3)ccc2O1 | inactive
C[C@H](CO)N1C[C@H](C)[C@@H](CN(C)C(=O)c2ccncc2)Oc2cc(-c3cccc(C#N)c3)ccc2S1(=O)=O | inactive
O=C(c1ccc(-n2cnnn2)cc1)N1CCN([C@H]2CCS(=O)(=O)C2)CC1 | inactive
C[C@@H]1CN([C@@H](C)CO)S(=O)(=O)c2ccc(C#CC3CCCCC3)cc2O[C@H]1CN(C)C(=O)Cc1ccncc1 | inactive
COc1ccc(NC(=O)Nc2ccc3c(c2)C(=O)N([C@@H](C)CO)C[C@@H](C)[C@H](CN(C)C(=O)Nc2ccc(F)cc2)OCCCC[C@@H](C)O3)cc1 | inactive
C[C@@H]1CN([C@@H](C)CO)C(=O)c2cc(NC(=O)NC3CCCCC3)ccc2O[C@@H](C)CCCCO[C@H]1CN(C)C(=O)Cc1ccccc1 | inactive
Cc1noc(C)c1S(=O)(=O)N(C)C[C@H]1OCCCC[C@H](C)Oc2ccc(NS(C)(=O)=O)cc2C(=O)N([C@H](C)CO)C[C@H]1C | inactive
COCC#Cc1ccc2c(c1)O[C@H](CN(C)Cc1ccc3c(c1)OCO3)[C@H](C)CN([C@@H](C)CO)S2(=O)=O | inactive
C[C@@H]1CN([C@@H](C)CO)C(=O)c2cc(NC(=O)Nc3cccc4ccccc34)ccc2O[C@H]1CN(C)Cc1ccc(-c2ccccc2)cc1 | inactive
C[C@H](CO)N1C[C@H](C)[C@@H](CN(C)C(=O)NC2CCCCC2)Oc2ccc(NC(=O)C3CC3)cc2C1=O | inactive
CCCSc1ccc2nc(NC(=O)OC)[nH]c2c1 | inactive
C[C@@H]1CN([C@H](C)CO)C(=O)c2cc(NC(=O)CCC(F)(F)F)ccc2O[C@@H]1CN(C)Cc1ccc(Oc2ccccc2)cc1 | inactive
COc1ccc(-c2cnc3c(c2)C(=O)N([C@H](C)CO)C[C@@H](C)[C@H](CN(C)C(=O)Cc2ccccn2)O3)cc1 | inactive
COc1ccccc1-c1cnc2c(c1)C(=O)N([C@@H](C)CO)C[C@@H](C)[C@@H](CN(C)C(=O)c1cccnc1)O2 | inactive

Structure (SMILES) | cytotoxicity call
C[C@H](CO)N1C[C@H](C)[C@@H](CN(C)C(=O)c2ccccc2)Oc2cc(C#C[C@@H](C)O)ccc2S1(=O)=O | inactive
Cn1cnc(S(=O)(=O)N[C@@H]2C=C[C@H](CC(=O)N3CCN(c4ccccc4)CC3)O[C@@H]2CO)c1 | inactive
C[C@H](N)C(=O)N[C@@H](C)P(=O)(O)O | inactive
COc1cccc(S(=O)(=O)N[C@@H]2C=C[C@@H](CC(=O)NC3CCC3)O[C@@H]2CO)c1 | inactive
C[C@@H]1CN([C@H](C)CO)C(=O)c2cc(C#Cc3cccc(F)c3)cnc2O[C@H]1CN(C)Cc1ccccn1 | inactive
Cc1ccc(S(=O)(=O)N(C)C[C@@H]2Oc3ccc(NC(=O)CCCN(C)C)cc3C(=O)N([C@@H](C)CO)C[C@@H]2C)cc1 | inactive
C[C@H]1CN([C@@H](C)CO)C(=O)c2cc(C#CCN(C)C)cnc2O[C@@H]1CN(C)S(=O)(=O)c1ccccc1 | inactive
COc1cccc(S(=O)(=O)Nc2ccc3c(c2)C(=O)N(C)C[C@@H](OC)[C@@H](C)CN(C(=O)Cc2cccnc2)[C@H](C)CO3)c1 | inactive
COc1ccc(S(=O)(=O)N2C[C@H](O)COC[C@H]3O[C@H](CC(=O)NCCCN4CCOCC4)CC[C@@H]32)cc1 | inactive
C[C@@H]1CN([C@@H](C)CO)C(=O)c2cc(C#Cc3ccc(F)cc3)cnc2O[C@@H]1CN(C)Cc1ccccn1 | inactive
C[C@@H]1CN([C@H](C)CO)C(=O)c2cc(NC(=O)Nc3cccc4ccccc34)ccc2O[C@H]1CN(C)S(=O)(=O)c1ccc(Cl)cc1 | inactive
COc1ccc(NC(=O)Nc2ccc3c(c2)C(=O)N([C@H](C)CO)C[C@@H](C)[C@H](CN(C)S(=O)(=O)c2ccc(Cl)cc2)OCCCC[C@H](C)O3)cc1 | inactive
C[C@@H]1CN([C@H](C)CO)C(=O)c2cc(NC(=O)Nc3ccc4c(c3)OCO4)ccc2O[C@H]1CN(C)C(=O)Nc1cccc2ccccc12 | inactive
COc1ccc(CN(C)C[C@H]2OCCCC[C@@H](C)Oc3ccc(NC(=O)Nc4cccc5ccccc45)cc3C(=O)N([C@@H](C)CO)C[C@@H]2C)cc1 | inactive
COc1cccc(S(=O)(=O)N(C)C[C@@H]2Oc3cc(C#CCN(C)C)ccc3S(=O)(=O)N([C@H](C)CO)C[C@@H]2C)c1 | inactive
N#Cc1c(N)nc(SCc2csc(-c3ccc(Cl)cc3)n2)c(C#N)c1-c1ccc(OCCO)cc1 | active
CC(C)COc1c[nH]c(CO)cc1=O | inactive
C[C@H](CO)N1C[C@H](C)[C@H](CN(C)S(C)(=O)=O)Oc2c(NC(=O)CCCCCC(=O)Nc3ccccc3N)cccc2C1=O | inactive
C[C@H](CO)N1C[C@H](C)[C@@H](CN(C)S(=O)(=O)c2ccc(F)cc2)Oc2ccc(NS(C)(=O)=O)cc2CC1=O | inactive
C[C@H](CO)N1C[C@H](C)[C@H](CN(C)C(=O)Nc2ccc3c(c2)OCO3)Oc2ccc(NC(=O)Cn3cnnn3)cc2CC1=O | inactive
